These results are taken from publication PMC12820563, “FoxP3 forms a head-to-head dimer in vivo and stabilizes its multimerization on adjacent microsatellites”.

The other results are listed elsewhere or left out.

The assay deals with T1, MBP-FoxP1dN (Mus musculus, UniProt P58462 326-579).
T1 sequence: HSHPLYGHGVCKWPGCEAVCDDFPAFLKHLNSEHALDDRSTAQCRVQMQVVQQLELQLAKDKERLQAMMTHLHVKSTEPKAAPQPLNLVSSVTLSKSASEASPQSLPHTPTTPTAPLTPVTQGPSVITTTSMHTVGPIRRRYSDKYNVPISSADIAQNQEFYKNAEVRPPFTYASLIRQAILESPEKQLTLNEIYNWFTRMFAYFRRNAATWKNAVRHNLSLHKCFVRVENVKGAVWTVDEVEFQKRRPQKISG
Put plainly: PD-seq (MBP pull-down with sequencing); 20 mM Tris-HCl pH 7.5, 100 mM NaCl, 1.5 mM MgCl2, 0.4 uM protein, 0.1 uM dsDNA library, 30 min, room temperature, amylose pull-down; high values mean tight binding. As to conditions: protein: recombinant; tags: His6-MBP; chain copies: 2; dsDNA, one strand shown. An outline of the steps:
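A fragment of mouse FoxP3 or FoxP1 without its N-terminus, carrying a His6-MBP tag and produced in E. coli, was combined at 0.4 µM with a 0.1 µM degenerate double-stranded DNA library filled in with Klenow. The mixture sat for 30 min at room temperature in Tris pH 7.5 buffer containing NaCl and MgCl2. Protein–DNA complexes were captured on amylose resin, washed three times, and the DNA was freed with proteinase K, barcoded by PCR and sequenced on Illumina. Binding is expressed as reads-per-million enrichment of pull-down over input, with replicates pooled.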
For the sequence “GATGATTGTTCTCCCAGCTGATGAATTCGTAATGTCGAGTAAACAAATTTTCCTAATCTTTCTGTTCAAGCGCCATCTAC”, the binding signal is 1.03 RPM ratio (pull-down/input).
For the sequence “GATGATTGTTCTCCCAGCTGATGAATTGCCCTCTTCGAGTAAACAAATTTTCCTAATCTTTCTGTTCAAGCGCCATCTAC”, the binding signal was 0.958 RPM ratio (pull-down/input).
For the sequence “GATGATTGTTCTCCCAGCTGATGAATTCAACTGATCGAGTAAACAAATTTTCCTAATCTTTCTGTTCAAGCGCCATCTAC”, the binding signal is 0.916 RPM ratio (pull-down/input).
On to “GATGATTGTTCTCCCAGCTGATGAATTGGGCAGTTCGAGTAAACAAATTTTCCTAATCTTTCTGTTCAAGCGCCATCTAC”, for which the binding signal is 0.883 RPM ratio (pull-down/input).
In the case of “GATGATTGTTCTCCCAGCTGATGAATTGAGGATATCGAGTAAACAAATTTTCCTAATCTTTCTGTTCAAGCGCCATCTAC”, the binding signal was 0.85 RPM ratio (pull-down/input).
For “GATGATTGTTCTCCCAGCTGATGAATTTACCCAGTCGAGTAAACAAATTTTCCTAATCTTTCTGTTCAAGCGCCATCTAC”, the binding signal was 1.01 RPM ratio (pull-down/input).
As to “GATGATTGTTCTCCCAGCTGATGAATTTTACAGATCGAGTAAACAAATTTTCCTAATCTTTCTGTTCAAGCGCCATCTAC”, the binding signal was 0.907 RPM ratio (pull-down/input).
On to “GATGATTGTTCTCCCAGCTGATGAATTTCAGTTATCGAGTAAACAAATTTTCCTAATCTTTCTGTTCAAGCGCCATCTAC”, for which the binding signal is 1.02 RPM ratio (pull-down/input).
With “GATGATTGTTCTCCCAGCTGATGAATTTGGTAAATCGAGTAAACAAATTTTCCTAATCTTTCTGTTCAAGCGCCATCTAC”, the binding signal was 1.3 RPM ratio (pull-down/input).
Turning to “GATGATTGTTCTCCCAGCTGATGAATTAGCGGTTTCGAGTAAACAAATTTTCCTAATCTTTCTGTTCAAGCGCCATCTAC”, the binding signal was 0.916 RPM ratio (pull-down/input).
For “GATGATTGTTCTCCCAGCTGATGAATTGGACTCCTCGAGTAAACAAATTTTCCTAATCTTTCTGTTCAAGCGCCATCTAC” the value was 0.729 RPM ratio (pull-down/input); for “GATGATTGTTCTCCCAGCTGATGAATTGGGTACTTCGAGTAAACAAATTTTCCTAATCTTTCTGTTCAAGCGCCATCTAC”, 0.888 RPM ratio (pull-down/input).
Turning to “GATGATTGTTCTCCCAGCTGATGAATTATATTTGTCGAGTAAACAAATTTTCCTAATCTTTCTGTTCAAGCGCCATCTAC”, the binding signal was 2.29 RPM ratio (pull-down/input).
The value for “GATGATTGTTCTCCCAGCTGATGAATTGGTGTCGTCGAGTAAACAAATTTTCCTAATCTTTCTGTTCAAGCGCCATCTAC” was 1.04 RPM ratio (pull-down/input).
Regarding “GATGATTGTTCTCCCAGCTGATGAATTTCTCATATCGAGTAAACAAATTTTCCTAATCTTTCTGTTCAAGCGCCATCTAC”, the binding signal is 1.01 RPM ratio (pull-down/input).
The value for “GATGATTGTTCTCCCAGCTGATGAATTGTTCAATTCGAGTAAACAAATTTTCCTAATCTTTCTGTTCAAGCGCCATCTAC” was 1.18 RPM ratio (pull-down/input).
The value for “GATGATTGTTCTCCCAGCTGATGAATTTGAAAGATCGAGTAAACAAATTTTCCTAATCTTTCTGTTCAAGCGCCATCTAC” was 0.87 RPM ratio (pull-down/input); that for “GATGATTGTTCTCCCAGCTGATGAATTGACTATATCGAGTAAACAAATTTTCCTAATCTTTCTGTTCAAGCGCCATCTAC” was 1.17 RPM ratio (pull-down/input).
The value for “GATGATTGTTCTCCCAGCTGATGAATTGCCGGACTCGAGTAAACAAATTTTCCTAATCTTTCTGTTCAAGCGCCATCTAC” was 0.858 RPM ratio (pull-down/input); that for “GATGATTGTTCTCCCAGCTGATGAATTACGCAAGTCGAGTAAACAAATTTTCCTAATCTTTCTGTTCAAGCGCCATCTAC” was 1.03 RPM ratio (pull-down/input).
With “GATGATTGTTCTCCCAGCTGATGAATTGGTTGCGTCGAGTAAACAAATTTTCCTAATCTTTCTGTTCAAGCGCCATCTAC”, the binding signal is 1.2 RPM ratio (pull-down/input).
“GATGATTGTTCTCCCAGCTGATGAATTATACGCCTCGAGTAAACAAATTTTCCTAATCTTTCTGTTCAAGCGCCATCTAC”: the binding signal was 0.912 RPM ratio (pull-down/input).
Take “GATGATTGTTCTCCCAGCTGATGAATTATCCGGGTCGAGTAAACAAATTTTCCTAATCTTTCTGTTCAAGCGCCATCTAC”: the binding signal is 0.783 RPM ratio (pull-down/input).
For the sequence “GATGATTGTTCTCCCAGCTGATGAATTAGGGAAGTCGAGTAAACAAATTTTCCTAATCTTTCTGTTCAAGCGCCATCTAC”, the binding signal was 0.821 RPM ratio (pull-down/input).
For the sequence “GATGATTGTTCTCCCAGCTGATGAATTGTCCAAATCGAGTAAACAAATTTTCCTAATCTTTCTGTTCAAGCGCCATCTAC”, the binding signal is 1.14 RPM ratio (pull-down/input).
Consider “GATGATTGTTCTCCCAGCTGATGAATTGCCCTTGTCGAGTAAACAAATTTTCCTAATCTTTCTGTTCAAGCGCCATCTAC”, for which the binding signal is 0.89 RPM ratio (pull-down/input).
The value for “GATGATTGTTCTCCCAGCTGATGAATTGAATGCATCGAGTAAACAAATTTTCCTAATCTTTCTGTTCAAGCGCCATCTAC” was 1.44 RPM ratio (pull-down/input); that for “GATGATTGTTCTCCCAGCTGATGAATTCCGACACTCGAGTAAACAAATTTTCCTAATCTTTCTGTTCAAGCGCCATCTAC” was 0.88 RPM ratio (pull-down/input); that for “GATGATTGTTCTCCCAGCTGATGAATTTGCCATGTCGAGTAAACAAATTTTCCTAATCTTTCTGTTCAAGCGCCATCTAC” was 0.845 RPM ratio (pull-down/input).
Turning to “GATGATTGTTCTCCCAGCTGATGAATTATAAAAGTCGAGTAAACAAATTTTCCTAATCTTTCTGTTCAAGCGCCATCTAC”, the binding signal was 0.941 RPM ratio (pull-down/input).
For the sequence “GATGATTGTTCTCCCAGCTGATGAATTTCGTAGGTCGAGTAAACAAATTTTCCTAATCTTTCTGTTCAAGCGCCATCTAC”, the binding signal was 0.71 RPM ratio (pull-down/input).
